# In the supplement of paper PMC8728848:
# This is one part of the list.
# What was measured:
# Assay in all cases: glycan array binding signal (z-score within array); higher = stronger binding
# Details in all cases: glycan notation: IUPAC condensed, linker removed
# [1] = molecular target: Fuc(a1-2)[GalNAc(b1-3)]Gal
# Summary of the method: (§1)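 The binding signal is a Z-score computed within each array and averaged over linkers. Arrays of the same protein sequence at different concentrations or buffers were also averaged together. Data originate from 3228 arrays in the Consortium for Functional Glycomics database, kept only where the protein sequence was available.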
# [2] = molecular target: Fuc(a1-3)GlcNAc
# Summary of the method: as §1
# [3] = molecular target: Fuc(a1-3)[Gal(b1-4)]Glc6S
# Summary of the method: as §1
# [4] = molecular target: Fuc(a1-3)[Gal(b1-4)]GlcNAc
# Summary of the method: as §1
# [5] = molecular target: Fuc(a1-3)[Gal(b1-4)]GlcNAc(b1-2)Man
# Summary of the method: as §1
# [6] = molecular target: Fuc(a1-3)[Gal(b1-4)]GlcNAc(b1-2)Man(a1-3)[Fuc(a1-3)[Gal(b1-4)]GlcNAc(b1-2)Man(a1-6)]Man(b1-4)GlcNAc(b1-4)GlcNAc
# Summary of the method: as §1
# [7] = molecular target: Fuc(a1-3)[Gal(b1-4)]GlcNAc(b1-2)Man(a1-3)[Fuc(a1-3)[Gal(b1-4)]GlcNAc(b1-2)Man(a1-6)]Man(b1-4)GlcNAc(b1-4)[Fuc(a1-6)]GlcNAc
# Summary of the method: as §1
# [8] = molecular target: Fuc(a1-3)[Gal(b1-4)]GlcNAc(b1-3)Gal(b1-3)[Fuc(a1-4)]GlcNAc
# Summary of the method: as §1
# [9] = molecular target: Fuc(a1-3)[Gal(b1-4)]GlcNAc(b1-3)Gal(b1-4)[Fuc(a1-3)]GlcNAc
# Summary of the method: as §1
# [10] = molecular target: Fuc(a1-3)[Gal(b1-4)]GlcNAc(b1-3)Gal(b1-4)[Fuc(a1-3)]GlcNAc(b1-3)Gal(b1-4)[Fuc(a1-3)]GlcNAc
# Summary of the method: as §1
# [11] = molecular target: Fuc(a1-3)[Gal(b1-4)]GlcNAc(b1-3)GalNAc
# Summary of the method: as §1
# [12] = molecular target: Fuc(a1-3)[Gal(b1-4)]GlcNAc(b1-6)GalNAc
# Summary of the method: as §1
# [13] = molecular target: Fuc(a1-3)[Gal(b1-4)]GlcNAc(b1-6)[Gal(b1-3)GlcNAc(b1-3)]Gal(b1-4)Glc
# Summary of the method: as §1
# [14] = molecular target: Fuc(a1-3)[Gal(b1-4)]GlcNAc6S
# Summary of the method: as §1
# [15] = molecular target: Fuc(a1-3)[Gal3S(b1-4)]Glc
# Summary of the method: as §1
# [16] = molecular target: Fuc(a1-3)[Gal3S(b1-4)]GlcNAc
# Summary of the method: as §1
# [17] = molecular target: Fuc(a1-3)[Gal3S(b1-4)]GlcNAc6S
# Summary of the method: as §1
# [18] = molecular target: Fuc(a1-3)[GalNAc(b1-4)]GlcNAc
# Summary of the method: as §1
# [19] = molecular target: Fuc(a1-3)[GalNAc(b1-4)]GlcNAc6S
# Summary of the method: as §1
# [20] = molecular target: Fuc(a1-4)GlcNAc
# Summary of the method: as §1
# [21] = molecular target: Fuc(b1-3)GlcNAc
# Summary of the method: as §1
# [22] = molecular target: Gal(a1-2)Gal
# Summary of the method: as §1
# [23] = molecular target: Gal(a1-3)Gal
# Summary of the method: as §1
# [24] = molecular target: Gal(a1-3)Gal(b1-3)GlcNAc
# Summary of the method: as §1
# [25] = molecular target: Gal(a1-3)Gal(b1-3)GlcNAc(b1-2)Man
# Summary of the method: as §1
# [26] = molecular target: Gal(a1-3)Gal(b1-3)GlcNAc(b1-2)Man(a1-3)[Gal(a1-3)Gal(b1-3)GlcNAc(b1-2)Man(a1-6)]Man(b1-4)GlcNAc(b1-4)GlcNAc
# Summary of the method: as §1
# [27] = molecular target: Gal(a1-3)Gal(b1-3)GlcNAc(b1-3)GalNAc
# Summary of the method: as §1
# [28] = molecular target: Gal(a1-3)Gal(b1-3)GlcNAc(b1-6)GalNAc
# Summary of the method: as §1
# [29] = molecular target: Gal(a1-3)Gal(b1-3)[Fuc(a1-4)]GlcNAc(b1-2)Man(a1-3)[Gal(a1-3)Gal(b1-3)[Fuc(a1-4)]GlcNAc(b1-2)Man(a1-6)]Man(b1-4)GlcNAc(b1-4)GlcNAc
# Summary of the method: as §1
# [30] = molecular target: Gal(a1-3)Gal(b1-4)Glc
# Summary of the method: as §1
binder,measurement,setting,value
"CFEM-PPm (Pichia pastoris), F2QPV1 (protein) AVATPPACLLACAAEVVKESSDCDALNNIQCICENEGSAIHACLESTCPDGLSSTALQSFEDVCE",glycan array binding signal (z-score),[1],-0.233
same,glycan array binding signal (z-score),[2],-0.301
same,glycan array binding signal (z-score),[3],-0.092
same,glycan array binding signal (z-score),[4],-0.068
same,glycan array binding signal (z-score),[5],-0.113
same,glycan array binding signal (z-score),[6],-0.141
same,glycan array binding signal (z-score),[7],-0.095
same,glycan array binding signal (z-score),[8],-0.258
same,glycan array binding signal (z-score),[9],-0.027
same,glycan array binding signal (z-score),[10],0.134
same,glycan array binding signal (z-score),[11],0.15
same,glycan array binding signal (z-score),[12],1.19
same,glycan array binding signal (z-score),[13],-0.303
same,glycan array binding signal (z-score),[14],-0.002
same,glycan array binding signal (z-score),[15],-0.232
same,glycan array binding signal (z-score),[16],0.069
same,glycan array binding signal (z-score),[17],0.06
same,glycan array binding signal (z-score),[18],0.055
same,glycan array binding signal (z-score),[19],-0.149
same,glycan array binding signal (z-score),[20],-0.28
same,glycan array binding signal (z-score),[21],-0.209
same,glycan array binding signal (z-score),[22],-0.447
same,glycan array binding signal (z-score),[23],-0.205
same,glycan array binding signal (z-score),[24],-0.035
same,glycan array binding signal (z-score),[25],-0.255
same,glycan array binding signal (z-score),[26],0.425
same,glycan array binding signal (z-score),[27],-0.358
same,glycan array binding signal (z-score),[28],-0.449
same,glycan array binding signal (z-score),[29],-0.006
same,glycan array binding signal (z-score),[30],-0.394
